Reference: the supplement of paper PMC3334620
Whole data set: some 33,000 sequences, median “E-score (-0.5 to 0.5)” near -0.011, cut for the highest 2% near 0.28. The list shows a part of the results.

Biological target: T1, Gcr1 (UniProt P07261)
T1 sequence: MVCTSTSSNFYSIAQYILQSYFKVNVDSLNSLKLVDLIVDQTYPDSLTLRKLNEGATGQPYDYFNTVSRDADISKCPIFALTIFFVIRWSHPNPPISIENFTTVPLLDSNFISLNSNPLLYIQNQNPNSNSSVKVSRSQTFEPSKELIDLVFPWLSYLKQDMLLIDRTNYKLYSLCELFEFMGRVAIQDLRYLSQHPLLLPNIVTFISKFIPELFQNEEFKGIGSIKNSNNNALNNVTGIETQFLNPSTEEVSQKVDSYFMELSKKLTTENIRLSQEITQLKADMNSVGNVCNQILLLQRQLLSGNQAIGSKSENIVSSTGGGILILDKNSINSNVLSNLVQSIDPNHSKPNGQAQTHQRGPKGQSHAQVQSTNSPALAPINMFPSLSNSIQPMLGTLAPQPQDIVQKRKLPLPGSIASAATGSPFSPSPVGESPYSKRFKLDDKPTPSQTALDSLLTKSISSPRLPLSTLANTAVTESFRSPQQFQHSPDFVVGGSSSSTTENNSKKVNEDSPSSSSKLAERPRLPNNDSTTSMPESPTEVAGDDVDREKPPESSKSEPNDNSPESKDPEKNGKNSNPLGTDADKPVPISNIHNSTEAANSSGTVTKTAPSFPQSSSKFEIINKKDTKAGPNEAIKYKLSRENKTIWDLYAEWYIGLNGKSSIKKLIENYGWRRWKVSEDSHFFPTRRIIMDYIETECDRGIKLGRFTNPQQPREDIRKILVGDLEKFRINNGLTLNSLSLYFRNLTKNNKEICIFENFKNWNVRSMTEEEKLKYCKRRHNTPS
Experiment: PBM E-score (8-mer binding enrichment) (E-score (-0.5 to 0.5)); higher = stronger / more preferred TF binding; most listed sequences are background and not binding sites
Conditions: protein concentration: 100 nM; construct: GST-full length
Protocol: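 Universal 'all 10-mer' protein binding microarrays (Agilent AMADID 015681) probed with GST-tagged S. cerevisiae TFs (full-length or DBD) made by in vitro transcription/translation (PURExpress), about 100-200 nM. Bound TF was detected with fluorescent anti-GST. Each ungapped 8-mer (which stands for itself and its reverse complement) is scored by the PBM enrichment score (E-score), a modified Wilcoxon-Mann-Whitney statistic from -0.5 to +0.5, computed with the Universal PBM Analysis Suite. Scale: above 0.35 generally sequence-specific binding.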

Point of comparison: GTTGACGA, “PBM E-score” value -0.0625. Against it:
- GTTACACA — higher, 0.0428
- CGTTACAG — higher, 0.0257
- CCTGGTAC — higher, 0.123
- AGTGGTCC — higher, 0.0263
- GTAATGTA — higher, -0.026
- CCAACAAG — higher, 0.0404
- ATCGTTAA — higher, -0.0428
- CTATTTTA — higher, 0.209
- ACCCTGTA — higher, 0.102
- CGTTGGCC — lower, -0.23
- AAGGCTAG — lower, -0.251
- CAGAGGGG — lower, -0.233
- CTCTATTA — higher, 0.154
- ATAATAGG — higher, 0.237
- ATCATGTC — higher, 0.0222
- ACTGTACT — lower, -0.212
- AAGGTCAG — lower, -0.202
- AGTCCGCG — lower, -0.142
- GAGTGAGC — lower, -0.176
- CGAGGGAA — lower, -0.106
- CTATTGGC — higher, 0.0102
- GGGAACAA — higher, 0.0985
- CCAACTCC — higher, 0.121
- AATTGAGC — higher, 0.0687
- CGGGTTAG — higher, -0.0116
- CCCACGAC — lower, -0.112
- TCGGGGAA — higher, 0.0604
- ACGAAGAT — higher, 0.00119
- ACACTGTC — lower, -0.139
- CGCATAGC — lower, -0.245
- ACATCTTA — higher, 0.0989
- AATTTCAC — higher, 0.123
- ACTCGTCT — higher, 0.126
- AAGCACTC — higher, 0.0181
- GCGGAGCA — lower, -0.203
- GGACATCC — higher, 0.153
- CCAAAGGG — higher, 0.00225
- ACAGCAGA — higher, -0.0557
- CCTTGCGC — lower, -0.243
- CCTACACG — higher, -0.0394
- CAGGGGGA — lower, -0.17
- GAGTCTAC — higher, 0.0134
- ATGTTGAC — higher, 0.0197
- AAAGCTTC — higher, 0.109
- ATATCGAT — higher, -0.0374
- CTATGCTA — lower, -0.075
- TTAATGAA — higher, 0.101
- CTATCAAC — higher, 0.128
- GCTTCCCA — higher, 0.386
- ACCAGTCA — higher, 0.0136
- ATAAATTA — higher, 0.165
- CACCATAC — higher, 0.0726
- GTTTACTA — lower, -0.0663
- GGCGTTTA — higher, 0.0877
- TACACCCA — lower, -0.0699
- CAAATTTG — higher, 0.144
- GTTTCTAA — higher, 0.222
- CAGTGCAA — lower, -0.127
- AAGTTAAC — higher, -0.0179
- ACTATCTC — higher, 0.00812
- CGTATGTC — higher, -0.0106
- CAACTCTC — lower, -0.063
- CCAATCCC — higher, 0.0645
- GAAGTGCC — higher, -0.0199
- AAGGAACA — higher, 0.105
- AATGGCCG — lower, -0.111
- ATATCGTG — higher, -0.0226
- CTCTCGTC — lower, -0.223
- CGCACATC — lower, -0.114
- ACTTTCCA — higher, 0.194
- CATTTAGA — higher, 0.00276
- CTCAGAGA — higher, 0.113
- TGGTTAAA — higher, 0.0695
- TATGCATA — lower, -0.268
- ATTCGGCC — lower, -0.123
- GTCATCCA — lower, -0.0788
- GGGATTAC — lower, -0.0964
- ATAAATGC — higher, -0.0522
- CTTGTGCC — lower, -0.101
- ACCTTTCT — higher, 0.0734
- CCTCTACC — higher, 0.0885
- ATAATTAT — higher, 0.297
- AGGACCCT — higher, -0.0554
- AGACACAA — higher, -0.0361
- CGTAAAAA — higher, 0.0304
